Experiments:
PTP1B = target: T1, PTP1B (Homo sapiens, UniProt P18031); experiment: Insulin-stimulated ERK1/2 phosphorylation in HepG2 cells (PTP1B negative control); conditions: 1 μM HJ-01 or HJ-02, 5 μM CinnGel 2ME for 1.5 hours; 100 nM insulin 5 min
T1 sequence (P18031 1-435): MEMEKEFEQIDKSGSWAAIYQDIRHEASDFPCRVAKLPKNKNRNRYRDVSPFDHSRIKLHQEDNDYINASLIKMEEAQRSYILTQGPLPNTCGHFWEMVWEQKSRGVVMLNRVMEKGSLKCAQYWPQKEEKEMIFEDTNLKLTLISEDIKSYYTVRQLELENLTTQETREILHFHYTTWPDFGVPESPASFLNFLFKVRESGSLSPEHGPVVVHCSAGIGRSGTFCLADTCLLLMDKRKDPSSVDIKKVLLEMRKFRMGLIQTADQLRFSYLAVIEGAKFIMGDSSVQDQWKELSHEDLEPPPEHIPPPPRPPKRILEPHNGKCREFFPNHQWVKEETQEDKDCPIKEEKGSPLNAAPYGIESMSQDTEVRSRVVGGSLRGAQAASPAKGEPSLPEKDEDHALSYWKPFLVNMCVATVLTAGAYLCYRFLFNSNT

TrkA-PTPσ interaction = TrkA-PTPσ interaction (Homo sapiens, UniProt Q13332); experiment: Immunoprecipitation assay: TrkA-RFP pulldown of PTPσ in transfected HEK-293t cells; conditions: 1 uM; HEK-293 cells treated with CSPGs and NGF; normalized to vehicle
[1] = tested on: PTPσ inhibition of TrkB signaling (ERK1/2 phosphorylation); experiment: TrkB stimulated ERK phosphorylation in TrkB-HEK-293t cells co-expressing full-length PTPσ
sympathetic neurons = experiment: Sympathetic outgrowth assay: dissociated sympathetic neurons on laminin or laminin and CSPGs, live cell imaging; conditions: 10 ng/mL NGF

Compound	ERK1/2 phosphorylation in insulin-stimulated HepG2 cells (PTP1B)	amount of PTPRS co-immunoprecipitated with TrkA-RFP (TrkA-PTPσ interaction)	BDNF-induced ERK1/2 phosphorylation [1]	sympathetic axon outgrowth over inhibitory CSPGs (sympathetic neurons)
C=CC(=O)Nc1cc(OC)c(OCCCCCC)cc1C(=O)O [HJ-02, 2-acrylamido-5-(hexyloxy)-4-methoxybenzoic Acid]	had no effect on ERK1/2 phosphorylation	reduced the amount of PTPRS that bound to TrkA-RFP	restored ERK1/2 phosphorylation to basal levels	restored sympathetic axon outgrowth in a dose dependent manner
CCC(=O)Nc1cc(OC)c(OCC2CCCCC2)cc1C(=O)O [HJ-03, 5-(cyclohexylmethoxy)-4-methoxy-2-propionamidobenzoic Acid]				did not promote sympathetic axon outgrowth across CSPGs
C=CC(=O)Nc1cc(OC)c(OCC2CCCCC2)cc1C(=O)O [HJ-01, 2-acrylamido-5-(cyclohexylmethoxy)-4-methoxybenzoic Acid]	had no effect on ERK1/2 phosphorylation	reduced the amount of PTPRS that bound to TrkA-RFP	restored ERK1/2 phosphorylation to basal levels	restored sympathetic axon outgrowth in a dose dependent manner

Reference: US12729177B2, “Small molecules promoting sympathetic nerve regeneration” (OREGON HEALTH & SCIENCE UNIVERSITY, priority 2020, dated 2026)
